In all, about 18,000 sequences were measured (“TetR repression strength (sort-seq, GFP reporter)”: median about 0.23, highest 2% from about 0.68 on). Some of the results follow.

This assay deals with TetR (class B, Tn10) (UniProt P04483). The assay can be described thus: TetR repression strength (sort-seq, GFP reporter) (relative to tetO2 = 1); higher = stronger repression. Particulars: E. coli. The method in brief: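 Repression strength was calculated by subtracting the read-weighted mean bin from the top bin index plus one and dividing by the unaltered operator's value. The plasmid library was low-copy in E. coli SIG10-MAX, with eight randomized operator positions between a constitutive promoter and sfGFP and constitutive TetR. Cultures grew 5 h at 37 °C in LB containing 50 µg/mL chloramphenicol before 10^6 cells were sorted by FACS into 13 fluorescence bins, each sequenced on Illumina. Three independent transformations were averaged for members having ≥30 reads in all replicates and a CV ≤0.5.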
UniProt P04483, sequence (P04483 whole entry): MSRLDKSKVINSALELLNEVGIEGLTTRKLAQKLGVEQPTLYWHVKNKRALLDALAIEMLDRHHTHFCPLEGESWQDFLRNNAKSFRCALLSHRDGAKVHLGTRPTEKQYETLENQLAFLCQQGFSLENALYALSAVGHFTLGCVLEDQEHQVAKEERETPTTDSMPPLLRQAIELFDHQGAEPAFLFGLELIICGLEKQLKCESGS
As for TCCCTTGGAGTCGATGAGA, the TetR repression strength was determined as 0.0828.
To TCCCGCTTAGTGTGTGAGA belongs 0.218; to TCCCGCAGAGTTAGAGAGA, 0.5; to TCCCCATCAGTGGGGGAGA, 0.275.
In the case of TCCCTTGCAGTATTAGAGA, the TetR repression strength was determined as 0.235.
For TCCCGTCGAGTTAGGGAGA the value was 0.0766; for TCCCAGCCAGTGAACGAGA, 0.124.
TCCCGTTCAGTGGACGAGA: the TetR repression strength came to 0.323.
The sequence TCCCGGTCAGTGTACGAGA showed a TetR repression strength of 0.0518.
On to TCCCAGAAAGTTGTCGAGA, for which the TetR repression strength stood at 0.342.
For TCCCGGCAAGTGGGAGAGA the value was 0.243.
With TCCCACGCAGTAACGGAGA, the TetR repression strength came out at 0.0156.
For TCCCATGTAGTAGGGGAGA, the TetR repression strength was determined as 0.245.
TCCCGTGGAGTATGTGAGA came in with a TetR repression strength of 0.359.
Take TCCCATTCAGTAACGGAGA: the TetR repression strength turned out to be 0.239.
To TCCCGCTCAGTCTGCGAGA belongs 0.518; to TCCCGTGCAGTGCTTGAGA, 0.207.
In turn, TCCCATCGAGTGGCGGAGA came in with a TetR repression strength of 0.497.
In turn, TCCCGTTCAGTTGTGGAGA yielded a TetR repression strength of 0.203.
To TCCCCGTGAGTAAGGGAGA belongs 0.0601; to TCCCGTGAAGTGGCCGAGA, 0.346.
As for TCCCTATAAGTTGAAGAGA, the TetR repression strength was found to be 0.478.
For TCCCGAACAGTAGCTGAGA the value was 0.291; for TCCCGCTCAGTAAGCGAGA, 0.257.
For TCCCCTCAAGTTAGCGAGA the value was 0.742; for TCCCGGTGAGTGGACGAGA, 0.496.
Turning to TCCCCGGGAGTCTTTGAGA, the TetR repression strength is 0.311.
To TCCCGGTTAGTAGCGGAGA belongs 0.249.
Take TCCCTGTGAGTGAGGGAGA: the TetR repression strength amounted to 0.111.
Consider TCCCTGAGAGTGGCGGAGA, for which the TetR repression strength was determined as 0.164.
For TCCCAGCAAGTTCGAGAGA the value was 0.176; for TCCCGGTAAGTTAATGAGA, 0.321.
TCCCTTAAAGTCTAGGAGA had a TetR repression strength of 0.142.
To TCCCTTGTAGTAGTTGAGA belongs 0.117; to TCCCGGAGAGTCTTAGAGA, 0.344; to TCCCACTCAGTTATTGAGA, 0.447.
To TCCCCAGTAGTGGCTGAGA belongs 0.19.
The sequence TCCCTTCCAGTCAGGGAGA showed a TetR repression strength of 0.392.
On to TCCCGGGGAGTTTAGGAGA, for which the TetR repression strength is 0.308.
For TCCCCGAAAGTTTAAGAGA the value was 0.347; for TCCCGTTGAGTCTTTGAGA, 0.538; for TCCCGGGAAGTCCTCGAGA, 0.985.
To TCCCTGTGAGTTAGCGAGA belongs 0.226; to TCCCGTGGAGTTGGGGAGA, 0.232; to TCCCATGGAGTTATGGAGA, 0.545.
TCCCAGCCAGTGGGCGAGA registered a TetR repression strength of 0.226.
In turn, TCCCTAACAGTTTTGGAGA returned a TetR repression strength of 0.275.
To TCCCATATAGTTGGGGAGA belongs 0.208.
To TCCCACAAAGTGGGAGAGA belongs 0.255; to TCCCTGGGAGTGCGTGAGA, 0.341.
For the sequence TCCCGAGCAGTTATAGAGA, the TetR repression strength was determined as 0.686.
For TCCCCGCTAGTGGCTGAGA the value was 0.438.
TCCCTCACAGTGCAAGAGA: the TetR repression strength is 0.374.
Consider TCCCAGGCAGTCGCGGAGA, for which the TetR repression strength amounted to 0.249.
Turning to TCCCTCTTAGTTGTAGAGA, the TetR repression strength was determined as 0.118.
As for TCCCACGTAGTATGGGAGA, the TetR repression strength was found to be 0.00864.

For the origin of these results see a collection of fitness landscapes (doi:10.1038/s41467-024-54723-y).
